# Data published in the supplement of paper PMC12217912.
# The other results are listed elsewhere or left out. The full chains were built here from the parent and the listed change. Inactive controls read about 0.05.
# B1: TEV protease; numbered along this chain (parent)
# chain: MGESLFKGPRDYNPISSSICHLTNESDGHTTSLYGIGFGPFIITNKHLFRRNNGTLVVQSLHGVFKVKDTTTLQQHLVDGRDMIIIRMPKDFPPFPQKLKFREPQREERICLVTTNFQTKSMSSMVSDTSCTFPSGDGIFWKHWIQTKDGQCGSPLVSTRDGFIVGIHSASNFTNTNNYFTSVPKNFMELLTNQEAQQWVSGWRLNADSVLWGGHKVFMVKPEEPFQPVKEATQL
# Variants of: B1
# Experiment: raw area under fraction-flipped curve 0-4 h after induction (AUC4h, not background-subtracted), DNA-recorder readout of cleavage of the substrate (dimensionless); higher = more cleavage of the substrate by the protease variant
# Details: temperature: 34 °C; time window: 0-4 h after rhamnose induction
# 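Note: Bxb1 expression induced with 0.2% (w/v) L-rhamnose at OD600 near 0.5, cultures sampled hourly, flipped fraction per protease–substrate barcode pair counted by paired-end Illumina sequencing.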
Variant,area with substrate ENLYHQS,area with substrate ENLYMQS,area with substrate ENLYNQS,area with substrate ENLYSQS,area with substrate ENLYVQS,area with substrate ENLYIQS,area with substrate ENLYKQS,area with substrate ENLYLQS,area with substrate ENLYRQS,area with substrate ENLYPQS
N172E,0.0537,0.0725,0.0838,0.0519,0.0187,–,–,–,–,–
D82R,–,–,–,–,–,0.0423,0.0596,0.0616,0.0454,–
C131D,0.0686,–,0.0722,0.0611,–,–,–,–,0.049,–
S154F,0.0581,0.0771,–,0.0734,–,–,–,–,–,0.077
I86D,–,0.0287,–,–,–,0.0516,–,–,0.0452,–

# Same assay, conditions: temperature: 34 °C; time window: 0-4 h after rhamnose induction
Variant,area with substrate ENLYTQS,area with substrate ENLYYQS,area with substrate ENLYQQS,area with substrate ENLYWQS
S154F,0.0543,0.0311,–,–
I86D,–,0.0401,0.0314,0.054
